The text below walks through data of PMC4336329 (PLoS ONE, 2015).

Hit rate of the full screen: of about 310,000 compounds, about 14,000 (4.5%) showed an effect of 50% or more. Effects have a minus sign here. Some of the results follow.
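Further: peak tail current of the secondary pulse compared with the same well before compound.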

human ether-à-go-go-related gene (hERG) potassium channel, sequence (Q12809 whole entry, looked up): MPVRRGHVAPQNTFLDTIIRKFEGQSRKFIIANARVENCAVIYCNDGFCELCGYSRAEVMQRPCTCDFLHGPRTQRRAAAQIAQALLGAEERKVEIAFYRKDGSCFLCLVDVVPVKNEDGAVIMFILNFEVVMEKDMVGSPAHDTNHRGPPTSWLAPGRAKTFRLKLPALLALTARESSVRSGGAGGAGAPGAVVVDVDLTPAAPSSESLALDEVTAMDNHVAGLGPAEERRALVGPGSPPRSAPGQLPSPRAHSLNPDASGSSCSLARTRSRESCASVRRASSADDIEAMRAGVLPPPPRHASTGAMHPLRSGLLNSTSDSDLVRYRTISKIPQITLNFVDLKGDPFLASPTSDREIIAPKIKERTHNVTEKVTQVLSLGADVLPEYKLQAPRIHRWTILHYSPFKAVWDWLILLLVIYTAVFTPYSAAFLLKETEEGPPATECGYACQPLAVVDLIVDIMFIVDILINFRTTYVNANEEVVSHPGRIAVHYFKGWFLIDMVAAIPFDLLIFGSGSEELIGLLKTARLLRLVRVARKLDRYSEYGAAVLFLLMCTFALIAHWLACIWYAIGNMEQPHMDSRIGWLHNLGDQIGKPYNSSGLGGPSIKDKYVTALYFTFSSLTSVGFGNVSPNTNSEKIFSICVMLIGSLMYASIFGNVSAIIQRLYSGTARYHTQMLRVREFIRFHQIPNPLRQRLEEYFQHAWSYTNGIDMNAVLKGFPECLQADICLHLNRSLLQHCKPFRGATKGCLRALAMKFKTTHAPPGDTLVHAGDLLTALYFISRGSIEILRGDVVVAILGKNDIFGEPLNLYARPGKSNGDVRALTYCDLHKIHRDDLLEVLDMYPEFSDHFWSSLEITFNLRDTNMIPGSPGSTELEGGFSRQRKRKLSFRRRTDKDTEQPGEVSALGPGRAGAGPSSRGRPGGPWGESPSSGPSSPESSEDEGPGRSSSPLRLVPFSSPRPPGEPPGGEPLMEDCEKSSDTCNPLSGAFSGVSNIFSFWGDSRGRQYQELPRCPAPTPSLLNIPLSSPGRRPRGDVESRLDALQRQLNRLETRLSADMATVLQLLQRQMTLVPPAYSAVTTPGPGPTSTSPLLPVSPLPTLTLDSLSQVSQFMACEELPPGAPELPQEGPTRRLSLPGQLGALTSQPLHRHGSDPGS

This assay addresses human ether-à-go-go-related gene (hERG) potassium channel (human, UniProt Q12809). Description: primary screen, population patch clamp on CHO cells stably expressing hERG.
Turning to `Cc1occc1C(=O)N1CCN(C(=O)C2CCCO2)CC1` (stereo not shown), the “hERG current change (%, negative = inhibition) at 10uM” value is -12.2%.
Under `COc1ccc(-c2ccc(/C=C3/C(=N)N4C=CSC4=NC3=O)o2)c([N+](=O)[O-])c1` stands -9.17%.
For `CC(c1ccccc1)C1CC(=O)N(c2ccc(C(=O)O)cc2)C1=O` (stereo not shown), the “hERG current change (%, negative = inhibition) at 10uM” value amounted to 15.2%.
In the case of `CCn1cc(C(=O)N2CCN(c3ccccc3)CC2)c(=O)c2cc(S(=O)(=O)N3CCOCC3)ccc21`, the “hERG current change (%, negative = inhibition) at 10uM” value came to 23%.
Take `COC(=O)CCNS(=O)(=O)c1ccc2nsnc2c1`: the “hERG current change (%, negative = inhibition) at 10uM” value stood at 8.7%.
As to `CC(C)c1ccccc1NC(=O)COC(=O)COc1ccccc1[N+](=O)[O-]`, the “hERG current change (%, negative = inhibition) at 10uM” value was 28.5%.
Under `CC(C)CC(c1nnnn1C1CCCC1)N1CCN(C(=O)c2ccco2)CC1.Cl` (stereo not shown) stands -33.9%.
Under `CCN(C(=O)c1ccc2c(SCC(=O)O)c3c(nc2c1)CCC3)c1cc(Cl)ccc1OC` stands 20.8%; under `CCc1ccccc1NCc1cc(=O)oc2cc(C)ccc12`, 26.9%; under `Cc1nc(SCC(=O)NNC(=O)c2cccs2)[nH]c(=O)c1C`, 16.9%.
For the compound `O=C(COC(=O)c1cccc(Br)c1)NCCC1=CCCCC1`, the “hERG current change (%, negative = inhibition) at 10uM” value is listed as 16.6%.
Under `CNc1ccc(Cl)cc1C(N)=O` stands 26.1%.
Under `CC(=O)c1ccc(NC(=O)c2cc(C)nc3ccccc23)cc1` stands 16.5%; under `COc1ccc(NC(=O)c2ccccc2NC(=O)CSc2ccc(Cl)cc2)cc1`, 3.21%.
Under `COC(=O)c1nnn(-c2ccsc2C(=O)OC)c1C(=O)OC` stands 9.52%.
For the compound `Cc1ccc(/C=C/c2nc3sc(C(=O)O)c(C)c3c(=O)[nH]2)cc1[N+](=O)[O-]`, the “hERG current change (%, negative = inhibition) at 10uM” value is recorded as 19%.
Under `COc1ccc(C(=O)CC(=O)C(=O)Nc2cc(OC)ccc2OC)cc1` stands 2.5%; under `COc1cc2nc(SCc3ccc(F)cc3)n(Cc3cccs3)c(=N)c2cc1OC`, 0.564%.
Under `Cc1nc(SCc2ccc(F)cc2)c2oc3ccccc3c2n1` stands 2.68%.
Under `CC(=O)Nc1ccc(NC(=O)C(OC(=O)c2ccccc2)C(OC(=O)c2ccccc2)C(=O)O)cc1` (stereo not shown) stands 4.27%; under `O=C(NCCc1ccc2c(c1)OCCO2)c1ccccn1`, 9.78%; under `O=C(Nc1ccc(Cc2ccncc2)cc1)c1cccc([N+](=O)[O-])c1`, 13.6%.
In the case of `CCOC(=O)CCCN1CC(O)=C(c2nc3ccccc3s2)C1=N`, the “hERG current change (%, negative = inhibition) at 10uM” value is given as -7.37%.
Regarding `COc1ccccc1-c1sc2ccccc2c1-c1ccc2c(c1)OCO2`, the “hERG current change (%, negative = inhibition) at 10uM” value was 4.64%.
Under `Cc1cccc(C)c1NC(=S)NCCc1ccccn1` stands 6.34%; under `O=C(NNc1cc(Cl)ccc1Cl)c1cccnc1Cl`, 22.9%; under `CC(=O)c1cccc(NC(=O)C(C)OC(=O)c2cccc(S(=O)(=O)N3CCN(C)CC3)c2)c1` (stereo not shown), -21.5%.
Under `COc1ccccc1NC(=O)C1=C(C)Nc2nc(-c3cccs3)nn2C1c1cccnc1` (stereo not shown) stands -6.58%; under `S=C(NCc1ccccc1)Nc1ccncc1`, -4.59%; under `CCN(c1ccc(OC)cc1)S(=O)(=O)c1ccc2c(c1)CCN2C(=O)CCC(=O)O`, 3.55%.
Consider `COc1cc(OC)nc(NC(=O)CN2CCN(c3ccc(F)cc3)CC2)n1`, for which the “hERG current change (%, negative = inhibition) at 10uM” value was -20.1%.
Under `Cl.Cn1sccc1=O` stands 19.2%; under `CCCCCc1nnc(NC(=O)OCCC)s1`, -26%.
Under `COc1ccc2c(c1)c(C(=O)N/N=C/c1ccc(OC)c(OC)c1)c(C)n2C` stands -39.2%; under `Cc1nnc(NC(=O)CSc2ncn(-c3ccccc3)n2)s1`, -3.65%.
Under `Cc1cc(C)cc(NC(=O)C(NCC2CCCO2)c2ccccc2)c1.O=C(O)C(=O)O` (stereo not shown) stands -35.5%.
Consider `COc1ccc2[nH]c(=O)c(CNc3ccccc3C)cc2c1`, for which the “hERG current change (%, negative = inhibition) at 10uM” value is on record as -0.585%.
For `COc1ccc(/C=C/c2onc(C)c2S(=O)(=O)N2CCC(C(=O)N3CCCCCC3)CC2)cc1`, the “hERG current change (%, negative = inhibition) at 10uM” value was found to be 2.32%.
Under `CCOC(=O)c1c(C)[nH]c(C(=O)OCc2ccc([N+](=O)[O-])cc2)c1C` stands 13.4%; under `CCCCN(CCCNC(=O)c1c(C)cc(=O)oc1C)c1ccccc1`, -64.4%.
Under `Cc1cc(N/C=C(\C#N)S(=O)(=O)c2ccc(Cl)cc2)nc(C)n1` stands -25.3%.
Under `CCCC(C)C(=O)Nc1nnc(C)s1` (stereo not shown) stands -2.87%; under `CCN(CC)S(=O)(=O)c1ccc(N2CCOCC2)c(NS(=O)(=O)c2cccs2)c1`, -15.3%; under `CC(=O)N(c1cccc(Br)c1)C1C=CS(=O)(=O)C1` (stereo not shown), 0.97%.
`CCOc1ccccc1C(=O)Nc1ccccc1C(N)=O`: the “hERG current change (%, negative = inhibition) at 10uM” value is -1.33%.
On to `CCC(=O)NCCNc1nc2cc(C)c(C)cc2cc1C#N`, for which the “hERG current change (%, negative = inhibition) at 10uM” value was 3.21%.
In the case of `Cc1onc(NC(=O)NC(=O)c2c(F)cccc2Cl)c1Br`, the “hERG current change (%, negative = inhibition) at 10uM” value turned out to be 2.3%.
`CCOC(=O)C(C)Oc1ccsc1C(=O)OC` (stereo not shown): the “hERG current change (%, negative = inhibition) at 10uM” value worked out at 2.46%.
Under `COc1cccc(C(=O)NCC(=O)NNc2ncnc(N)c2[N+](=O)[O-])c1` stands 15.3%; under `CCOC(=O)c1sc2ncn(CC(=O)Nc3cc(C)on3)c(=O)c2c1C`, 14.4%.
Take `CN(C)CCCN(Cc1ccc2c(c1)OCO2)C(=O)NC1CCCCC1`: the “hERG current change (%, negative = inhibition) at 10uM” value was -32.7%.
Under `COC(=O)c1cccc(-n2c(C)cc(C=O)c2C)c1` stands -0.631%.
Under `Cc1cc(Nc2c(C)n(C)n(-c3ccccc3)c2=O)c2ccccc2n1` stands -20.3%; under `CNC(C(=O)c1ccccc1)C(OC)c1cccc([N+](=O)[O-])c1.[O-][Cl+3]([O-])([O-])O` (stereo not shown), 5.26%; under `CN1/C(=C\C(=O)c2cccnc2)C(C)(C)c2ccccc21`, -21.5%.
Under `COC(=O)c1ccc(/C=N/NC(=O)CC(=O)NCC(C)C)cc1` stands 20.5%.
In the case of `CCOC(=O)C1CCN(C/C=C/c2ccccc2)CC1`, the “hERG current change (%, negative = inhibition) at 10uM” value is -28.2%.
Under `Cc1ccc(C)c(S(=O)(=O)Nc2cc3c4c(c2)CCC(=O)N4CCC3)c1` stands 7.7%.
